# Source: patent publication US10335372B2, “Compositions with modified nucleases targeted to viral nucleic acids and methods of use for prevention and treatment of viral diseases” (priority 2004, dated 2019)
# Where a chain is given by its changes, count along the chain named. Numbers in names are those of the source. Where “and” joins values, the source holds several entries; their conditions need not be identical. Equal entries are not always repeated.
# B1: mc/arDNase (+6): hyperactive/actin-resistant human DNase I, E13R/T14K/H44R/N74K/T205K/A114R (protein, UniProt P24855 23-282, looked up, variant E13R T14K H44R N74K T205K A114R)
# Deoxyribonuclease-1: LKIAAFNIQTFGRKKMSNATLVSYIVQILSRYDIALVQEVRDSRLTAVGKLLDNLNQDAPDTYHYVVSEPLGRKSYKERYLFVYRPDQVSAVDSYYYDDGCEPCGNDTFNREPRIVRFFSRFTEVREFAIVPLHAAPGDAVAEIDALYDVYLDVQEKWGLEDVMLMGDFNAGCSYVRPSQWSSIRLWTSPTFQWLIPDSADTTAKPTHCAYDRIVVAGMLLRGAVVPDSALPFNFQAAYGLSDQLAQAISDHYPVEVMLK
# B2: mcDNase (+3): recombinant human DNase I with substitutions E13R/N74K/T205K (protein, UniProt P24855 23-282, looked up, variant E13R N74K T205K)
# Deoxyribonuclease-1: B1 Deoxyribonuclease-1 with K14T, R44H, R114A
# B3: mcDNase (+5): recombinant human DNase I with substitutions E13R/T14K/H44R/N74K/T205K (protein, UniProt P24855 23-282, looked up, variant E13R T14K H44R N74K T205K)
# Deoxyribonuclease-1: B1 Deoxyribonuclease-1 with R114A
# Tested on: dsDNA
# Test: Hydrolysis of dsDNA in human serum by native, multi-charged and actin-resistant DNase I variants
# Settings: for Time T50 (min) 50% DNA hydrolysis: single values of triplicate
# Description: Target dsDNA in phosphate buffer, pH 7.5, at a DNA concentration 5 ng/ml, approximates in vivo peak concentrations of viral DNA within an infected cell. This concentration is orders of magnitude lower than typical concentration of endogenous host DNA in serum (about 25-250 ng/ml; Pan, et al., J. Biol. Chem. 273, No 29: 18374-18381, 1998). Standard assay of DNase activity is based on conversion of acid-insoluble DNA polymer, precipitable by cold 2.25 mol/l perchloric acid, into non-precipitable acid soluble fragments that are 20 bp or less long determined spectrophotometrically at λ=260 nm (Dewez, et al., Eur. J. Clin. Chem. Clin. Biochem. 31, 793-797, 1993). The results performed in triplicate represent time required for 50% solubilization of 5 kbp dsDNA (500 μg/ml) by each of the mc and mc/ar-DNases (+1 to +6) positively charged variants, compared with the 50%-solubilization time of the same 5 kbp dsDNA samples digested by wild-type human DNase I.
Molecule,Average T50 (min) 50% DNA hydrolysis [min],Time T50 (min) 50% DNA hydrolysis
B1,1,–
B2,11,10 min and 11 min and 12 min
B3,6,5 min and 6 min and 7 min
